Measured values as given in the supplement of paper PMC10126150.
Values marked as one replicate rest on one cluster of the flow cell; about a third of the high ones do not repeat.

Tested on: ATP
Assay: switch fluorescence ratio, 500 uM ATP over buffer (Cy3 cluster intensity, sum of 5 cycles each) (fold (ratio)); higher = stronger signal-on switching upon ATP binding; sequences stand for … in TCGTCGGCAGCGTCAGATGTGTATAAGAGACAGTTTTTTTTTTTTTTTTTTTTTTTTT…TC
Conditions: aptamer strand: ATP DNA aptamer (quencher-CACCTGGGGGAGTATTGCGGAGGAAGG + anchor), 100 nM annealed; ATP concentration: 500 uM; one replicate
How it was run: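 For every switch-domain sequence, the fluorescence ratio is the mean of per-cluster values, each being summed target-cycle Cy3 intensity over summed buffer-cycle Cy3 intensity. Clusters outside 100-1000 RFU were excluded. On a modified Illumina MiSeq flow-cell, the Cy3-labelled switching-strand clusters were annealed to 100 nM quencher-labelled ATP aptamer, imaged in selection buffer and then after 15 min with 500 uM ATP at 22 °C. Five such cycles were run, with NaOH stripping and re-annealing between them.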
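Note: ATP exposure 15 min at 22 °C before imaging.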

| Sequence | switch fluorescence ratio |
| --- | --- |
| TCGGCTAGAG | 1.05 |
| GACAAAGTAC | 4.08 |
| GTTTGTAGGT | 0.991 |
| TAGAAAAGCT | 0.997 |
| ACATAGTCAA | 1.11 |
| AACTGGCATG | 1.02 |
| GGTTGGCACA | 1.01 |
| CTGGTCTACC | 1 |
| CGGTTGAAGC | 1.79 |
| ATCGGGGGAT | 1.03 |
| CGGTTTCGTT | 1.02 |
| TTGTGTTAAT | 0.978 |
| ACTGCGATTG | 1.08 |
| CACTTTATCG | 1 |
| CAGGTGTAGG | 1.02 |
| TGGTAAAATG | 0.951 |
| CACTGACT | 1.34 |
| TGATATGCCA | 0.981 |
| ACTATGGAAG | 0.975 |
| GAACCAGTGG | 1.05 |
| CATCGACCTA | 1.01 |
| GGCTCTCCTA | 0.991 |
| GTTTTAATCT | 1 |
| GATCGACAGG | 0.976 |
| TTCTAGAAG | 0.948 |
| ACGCTATCCG | 1.01 |

| Sequence | switch fluorescence ratio |
| --- | --- |
| CGTCCCCATT | 1.22 |
| ATCCTGGCCT | 1.09 |
| TAAAGTCCTA | 0.969 |
| TTATGAAATC | 1.04 |
| ACAAAGCACA | 1.26 |
| CGTACATCCT | 1.03 |
| ATCTCCTCAG | 1.13 |
| GGTGTTTCTA | 0.995 |
| ACTCCTCGTG | 1.84 |
| GCTAATGATG | 0.991 |
| CTTAGACTGT | 1.03 |
| CAGTGAGCAG | 0.947 |
| ATGCTTAGGC | 0.984 |
| AGCTTGTTAA | 0.986 |
| GAGACGGGGT | 1.03 |
| CGGTCTTATT | 0.97 |
| CATCCCATTA | 1.74 |
| CGTCTTGCAG | 0.99 |
| ATCGCGGGGC | 1.13 |
| CACCGTCTGC | 1.05 |
| TATTTACTGG | 0.996 |
| CGTTGGGCGT | 0.976 |
| AGAGGTATTG | 0.98 |
| ACTAACGCTT | 1.26 |
| CGCGCTGATG | 0.992 |
| GCTATCTCGA | 1.01 |

| Sequence | switch fluorescence ratio |
| --- | --- |
| CACATGAAGG | 0.978 |
| AGCCGGAGAG | 0.992 |
| GTCAGTAACG | 1.01 |
| TGTTTGCGTG | 0.966 |
| TAGTCAGTTT | 0.988 |
| TGCACTGTTG | 0.997 |
| TGTCGGTTGC | 1.03 |
| AACGCGTCCA | 0.987 |
| GCCTTAATTG | 0.987 |
| AATATTATTC | 1.04 |
| TAGGCTCGT | 0.981 |
| GGTTTGTTGG | 0.987 |
| CATGTTTGA | 0.981 |
| TGTAATCATG | 1 |
| GAGTAGGCCT | 0.943 |
| TTCAAAATAT | 0.959 |
| CATTCAATGG | 1.07 |
| ACTCGGCTTA | 1.3 |
| TTTTATGACT | 0.983 |
| ATAGGCGACA | 1.01 |
| TACTAATATT | 1.03 |
| GGTTCATTTG | 0.997 |
| GTAATATTGG | 0.993 |
| CCTGTAGGGG | 1.01 |
| ACTCGAGTAT | 0.976 |
| ACACGTACT | 1.66 |

| Sequence | switch fluorescence ratio |
| --- | --- |
| AGGTCTCAAG | 0.957 |
| GAGGGTGTTG | 0.986 |
| CACGCCGTCA | 1 |
| CATCTTCGCC | 1.12 |
| TACTGTATGG | 0.984 |
| CGGATGCAGA | 1.03 |
| CCTGTCCGCT | 1.86 |
| ATGGGTCCGA | 0.949 |
| GATTCCTGCT | 0.957 |
| TTGTTTAAT | 0.962 |
| CTGGATGAGA | 1.01 |
| TAAAATCGCG | 1.07 |
| GTGTCAAAGC | 0.994 |
| ATTAGTGGG | 1 |
| TAAACTTACC | 1.06 |
| CTAGTCCGAG | 1.07 |
| TGGCCCTGGG | 0.973 |
| GTAGGAGTA | 0.99 |
| GCGTTACGAT | 1.09 |
| TTATGACATG | 1.02 |
| GTTACGGAGT | 0.997 |
| TCCTGGGTGA | 1 |
| TATGTAGGCT | 1.07 |
| TATGTGGAA | 0.986 |
| AGCAGTACCA | 1.22 |
| CGAAATTGAT | 0.99 |

| Sequence | switch fluorescence ratio |
| --- | --- |
| ATCAGTGCCC | 1 |
| TTACGGGATG | 1.03 |
| AACGATATTT | 1.01 |
| GGTTTGAGTG | 0.953 |
| GAGGTATGAC | 0.999 |
| TGAGACAGTA | 1.01 |
| CACGCAGAAG | 1.22 |
| GGGTACACCT | 1.08 |
| TGTGGGATAA | 0.982 |
| CAAAGGCTCT | 0.99 |
| GTAATCTCCG | 1.18 |
| TAAAGGGAGG | 1.01 |
| CTAAGGTAGT | 1.01 |
| GTATCTACGG | 1.09 |
| ACTCCGTTGT | 3.24 |
| TTGTAGTGCG | 0.994 |
| ACCCTCCGAA | 5.56 |
| AAATCTACGT | 1.03 |
| GGATATTGTT | 0.951 |
| CGGGCTGTCA | 0.929 |
| ACGTAGGGAG | 1.07 |
| AAGCTGGAGA | 1.06 |
| GCGGTACGGG | 1.07 |
| ATTACTAATG | 1.03 |
| ATCGAGTGCA | 1.01 |
| GGTTTCAACC | 0.98 |

| Sequence | switch fluorescence ratio |
| --- | --- |
| TAATAGTCAC | 0.983 |
| TATCGGTTTT | 1.01 |
| TTTAGTAGTG | 0.982 |
| AAAAGCAAAT | 1.01 |
| TCATTTTAGG | 0.949 |
| CTGTTGTTTT | 0.983 |
| GCATTTGTCG | 1.01 |
| AGTCCTCTGA | 1.03 |
| CGGCGCGTCC | 1.03 |
| GCGCTTTAAA | 1.06 |
| GCTAGTTCTG | 1.04 |
| CATGCTTCCT | 1.23 |
| CACCCCGATG | 1.25 |
| CGGCTTATTG | 0.985 |
| GTAAGAATAG | 1.03 |
| ATACAACCGG | 1.03 |
| GTTCGCGAG | 0.984 |
| GAGAAGTGCC | 1.01 |
| TATGAAAGAC | 1.08 |
| TCGGGTGAAA | 1.01 |
| TTAGCTAGAC | 2.92 |
| CCAGAGAGTA | 0.963 |
| CCAGCGTAT | 1.12 |
